Reference: the supplement of paper PMC8728848
The other results are listed elsewhere or left out.

How the values were obtained:
Experiment in all cases: glycan array binding signal (z-score within array); higher = stronger binding
Conditions in all cases: glycan notation: IUPAC condensed, linker removed; mutation: R343I
[1] = biological target: Man(a1-3)[Man(a1-6)]Man(a1-6)[Man(a1-2)Man(a1-3)]Man(b1-4)GlcNAc(b1-4)GlcNAc
Procedure, shortened: (§1)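 The binding signal is a Z-score computed within each array. Data were drawn from 3228 arrays in the Consortium for Functional Glycomics database, restricted to those with a known protein sequence. Scores were averaged over arrays of the same protein sequence at different concentrations or buffers, and over linkers, and negative values can be taken as non-binding.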

[2] = biological target: Man(a1-3)[Man(a1-6)]Man(a1-6)[Man(a1-3)]Man
Procedure, shortened: as §1

[3] = biological target: Man(a1-3)[Man(a1-6)]Man(a1-6)[Man(a1-3)]Man(b1-4)GlcNAc(b1-4)GlcNAc
Procedure, shortened: as §1

[4] = biological target: Man(a1-3)[Man(a1-6)]Man(b1-4)GlcNAc(b1-4)GlcNAc
Procedure, shortened: as §1

Man(a1-6)Man = biological target: Man(a1-6)Man
Procedure, shortened: as §1

Man(b1-4)GlcNAc = biological target: Man(b1-4)GlcNAc
Procedure, shortened: as §1

Neu5Ac(a2-3)Gal = biological target: Neu5Ac(a2-3)Gal
Procedure, shortened: as §1

[5] = biological target: Neu5Ac(a2-3)Gal(b1-3)GalNAc
Procedure, shortened: as §1

[6] = biological target: Neu5Ac(a2-3)Gal(b1-3)GalNAc(b1-3)Gal(a1-4)Gal(b1-4)Glc
Procedure, shortened: as §1

[7] = biological target: Neu5Ac(a2-3)Gal(b1-3)GalNAc(b1-3)Gal(b1-4)GlcNAc
Procedure, shortened: as §1

[8] = biological target: Neu5Ac(a2-3)Gal(b1-3)GalNAc(b1-4)[Neu5Ac(a2-3)]Gal(b1-4)Glc
Procedure, shortened: as §1

[9] = biological target: Neu5Ac(a2-3)Gal(b1-3)GalNAc6S
Procedure, shortened: as §1

[10] = biological target: Neu5Ac(a2-3)Gal(b1-3)GlcNAc
Procedure, shortened: as §1

[11] = biological target: Neu5Ac(a2-3)Gal(b1-3)GlcNAc(b1-3)Gal(b1-3)GlcNAc
Procedure, shortened: as §1

[12] = biological target: Neu5Ac(a2-3)Gal(b1-3)GlcNAc6S
Procedure, shortened: as §1

[13] = biological target: Neu5Ac(a2-3)Gal(b1-3)[Fuc(a1-4)]GlcNAc
Procedure, shortened: as §1

[14] = biological target: Neu5Ac(a2-3)Gal(b1-3)[Fuc(a1-4)]GlcNAc(b1-3)Gal(b1-4)[Fuc(a1-3)]GlcNAc
Procedure, shortened: as §1

[15] = biological target: Neu5Ac(a2-3)Gal(b1-3)[Neu5Ac(a2-3)Gal(b1-4)]GlcNAc
Procedure, shortened: as §1

[16] = biological target: Neu5Ac(a2-3)Gal(b1-3)[Neu5Ac(a2-6)]GalNAc
Procedure, shortened: as §1

Neu5Ac(a2-3)Gal(b1-4)Glc = biological target: Neu5Ac(a2-3)Gal(b1-4)Glc
Procedure, shortened: as §1

[17] = biological target: Neu5Ac(a2-3)Gal(b1-4)GlcNAc
Procedure, shortened: as §1

[18] = biological target: Neu5Ac(a2-3)Gal(b1-4)GlcNAc(b1-2)Man(a1-3)[GlcNAc(b1-2)Man(b1-4)GlcNAc(b1-2)Man(a1-6)]Man(b1-4)GlcNAc(b1-4)GlcNAc
Procedure, shortened: as §1

[19] = biological target: Neu5Ac(a2-3)Gal(b1-4)GlcNAc(b1-2)Man(a1-3)[Neu5Ac(a2-6)Gal(b1-4)GlcNAc(b1-2)Man(a1-6)]Man(b1-4)GlcNAc(b1-4)GlcNAc
Procedure, shortened: as §1

[20] = biological target: Neu5Ac(a2-3)Gal(b1-4)GlcNAc(b1-3)Gal(b1-3)GlcNAc
Procedure, shortened: as §1

[21] = biological target: Neu5Ac(a2-3)Gal(b1-4)GlcNAc(b1-3)Gal(b1-4)GlcNAc
Procedure, shortened: as §1

[22] = biological target: Neu5Ac(a2-3)Gal(b1-4)GlcNAc(b1-3)Gal(b1-4)GlcNAc(b1-3)Gal(b1-4)GlcNAc
Procedure, shortened: as §1

[23] = biological target: Neu5Ac(a2-3)Gal(b1-4)GlcNAc(b1-3)Gal(b1-4)[Fuc(a1-3)]GlcNAc
Procedure, shortened: as §1

[24] = biological target: Neu5Ac(a2-3)Gal(b1-4)GlcNAc(b1-6)[Gal(b1-3)]GalNAc
Procedure, shortened: as §1

[25] = biological target: Neu5Ac(a2-3)Gal(b1-4)GlcNAc(b1-6)[Neu5Ac(a2-3)Gal(b1-3)]GalNAc
Procedure, shortened: as §1

[26] = biological target: Neu5Ac(a2-3)Gal(b1-4)GlcNAc6S
Procedure, shortened: as §1

[27] = biological target: Neu5Ac(a2-3)Gal(b1-4)[Fuc(a1-3)]GlcNAc
Procedure, shortened: as §1

[28] = biological target: Neu5Ac(a2-3)Gal(b1-4)[Fuc(a1-3)]GlcNAc(b1-3)Gal
Procedure, shortened: as §1

[29] = biological target: Neu5Ac(a2-3)Gal(b1-4)[Fuc(a1-3)]GlcNAc(b1-3)Gal(b1-4)GlcNAc
Procedure, shortened: as §1

[30] = biological target: Neu5Ac(a2-3)Gal(b1-4)[Fuc(a1-3)]GlcNAc(b1-3)Gal(b1-4)[Fuc(a1-3)]GlcNAc(b1-3)Gal(b1-4)[Fuc(a1-3)]GlcNAc
Procedure, shortened: as §1

[31] = biological target: Neu5Ac(a2-3)Gal(b1-4)[Fuc(a1-3)]GlcNAc(b1-6)[Gal(b1-3)]GalNAc
Procedure, shortened: as §1

[32] = biological target: Neu5Ac(a2-3)Gal(b1-4)[Fuc(a1-3)]GlcNAc6S
Procedure, shortened: as §1

[33] = biological target: Neu5Ac(a2-3)Gal6S(b1-4)GlcNAc
Procedure, shortened: as §1

B1: Surfactant Protein D (Human); Neck + Carbohydrate Recognition Domain (NCRD) (Homo sapiens) (protein)
chain: MLLFLLSALVLLTQPLGYLEAEMKTYSHRTMPSACTLVMCSSVESGLPGRDRDGREGPRGEKGDPGLPGAAGQAGMPGQAGPVGPKGDNGSVGEPGPKGDTGPSGPPGPPGVPGPAGREGALGKQGNIGPQGKPGPKGEAGPKGEVGAPGMQGSAGARGLAGPKGERGVPGERGVPGNTGAAGSAGAMGPQGSPGARGPPGLKGDKGIPGDKGAKGESGLPDVASLRQQVEALQGQVQHLQAAFSQYKKVELFPNGQSVGEKIFKTAQFVKPFTEAQLLCTQAGGQLASPRSAAENAALQQLVVAKNEAAFLSMTDSKTEGKFTYPTGESLVYSNWAPGEPNDDGGSEDCVEIFTNGKWNDIACGEKRLVVCEF
- glycan array binding signal (z-score) [1]: 4.22
- glycan array binding signal (z-score) [2]: 4.22
- glycan array binding signal (z-score) [3]: 2.45
- glycan array binding signal (z-score) [4]: 1.35
- glycan array binding signal (z-score) (Man(a1-6)Man): -0.261
- glycan array binding signal (z-score) (Man(b1-4)GlcNAc): 0.903
- glycan array binding signal (z-score) (Neu5Ac(a2-3)Gal): -0.275
- glycan array binding signal (z-score) [5]: -0.278
- glycan array binding signal (z-score) [6]: -0.272
- glycan array binding signal (z-score) [7]: -0.279
- glycan array binding signal (z-score) [8]: -0.277
- glycan array binding signal (z-score) [9]: -0.275
- glycan array binding signal (z-score) [10]: -0.273
- glycan array binding signal (z-score) [11]: -0.268
- glycan array binding signal (z-score) [12]: -0.275
- glycan array binding signal (z-score) [13]: -0.268
- glycan array binding signal (z-score) [14]: -0.227
- glycan array binding signal (z-score) [15]: -0.272
- glycan array binding signal (z-score) [16]: -0.269
- glycan array binding signal (z-score) (Neu5Ac(a2-3)Gal(b1-4)Glc): -0.277
- glycan array binding signal (z-score) [17]: -0.259
- glycan array binding signal (z-score) [18]: -0.151
- glycan array binding signal (z-score) [19]: -0.272
- glycan array binding signal (z-score) [20]: -0.278
- glycan array binding signal (z-score) [21]: -0.278
- glycan array binding signal (z-score) [22]: -0.272
- glycan array binding signal (z-score) [23]: -0.264
- glycan array binding signal (z-score) [24]: -0.278
- glycan array binding signal (z-score) [25]: -0.275
- glycan array binding signal (z-score) [26]: -0.266
- glycan array binding signal (z-score) [27]: -0.271
- glycan array binding signal (z-score) [28]: -0.275
- glycan array binding signal (z-score) [29]: -0.265
- glycan array binding signal (z-score) [30]: -0.255
- glycan array binding signal (z-score) [31]: -0.254
- glycan array binding signal (z-score) [32]: -0.272
- glycan array binding signal (z-score) [33]: -0.276
